PubChem BioAssay AID588855 (National Center for Advancing Translational Sciences (NCATS), 2011)
Out of some 410,000 compounds screened, about 5,000 (1.2%) were called active. This list was built around the results that the source calls inconclusive (neither active nor inactive); the mix of calls is not that of the screen. Calls come from the whole dose curve; as a rule, active = well fitted inhibition curve with a large enough effect; inconclusive = small, poorly fitted or top-dose-only effect; inactive = no such curve, though single readings can be large or run the other way. Where the call is inconclusive, the potency comes from a doubtful curve fit.

test: qHTS for Inhibitors of TGF-b; conditions: HepG2 CAGA-GFP TGF-b/SMAD3 reporter, GFP fluorescence, 18 h, TGF-beta stimulated, 500 pg/mL final; series mostly up to 46.1 µM; activity, negative = inhibition: at the top concentration; note: nearly all actives have a fitted effect of over 65% in size
How it was run: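 Using HEPG2 CAGA-GFP reporter cells at 1000 cells/well, we pinned test compounds, stimulated with recombinant TGF-beta (500 pg/mL final) and measured total well GFP after 18 h.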
% is set by controls: 0 for no effect and ±100 for the full control effect; potency is the fitted concentration of half-maximal effect; tags give direction and shape of the fitted curve.

Row | Compound | Potency | activity, negative = inhibition
1 | COc1cc(S(=O)(=O)N2CCCCC2)ccc1NC(=O)/C=C/c1ccccc1 | inconclusive: 35.5 µM [inhibitor, single point] | 
2 | Clc1ccc(OCCCNCc2ccccc2)c(Br)c1 | inconclusive: 35.5 µM [inhibitor, single point] | 
3 | COc1ccc(NC(=O)c2sc3nc[nH]c(=O)c3c2C)cc1OC |  | inactive: -1.53%
4 | COc1ccc(CNC(c2ccccc2)c2ccc(Cl)cc2)cc1 (stereo not given) |  | inactive: 0.288%
5 | CCOC(=O)C1=CCN(S(=O)(=O)c2ccc(F)cc2)C1c1cccc(Cl)c1 (stereo not given) | inconclusive: 11.2 µM [inhibitor, single point] | 
6 | CC(=O)C1CCCN(C(=O)c2ccc3nc(Cc4cccc(Cl)c4)oc3c2)C1 (stereo not given) | inconclusive: 2.82 µM [inhibitor, full curve, poor fit] | 
7 | N#CC(/C(=N/S(=O)(=O)c1cccs1)c1ccccc1)c1nc2ccccc2[nH]1 (stereo not given) | inconclusive: 4.47 µM [inhibitor, single point] | 
8 | CC(C)c1ccc(NC(=O)C(Cc2ccccc2)NS(=O)(=O)c2ccc3c(c2)CCC(=O)N3)cc1 (stereo not given) | inconclusive: 35.5 µM [inhibitor, single point] | 
9 | COc1cc2ncc3c(-c4ccccc4)nn(-c4ccc(C)cc4)c3c2cc1OC | inconclusive: 11.2 µM [inhibitor, partial curve, poor fit] | 
10 | CCn1c(-c2ccccc2)c(C(=O)O)c2ccccc21 | inconclusive: 0.112 µM [inhibitor, full curve, poor fit] | 
11 | CCCCN1CC(COCc2ccccc2)Oc2cccc(F)c2S1(=O)=O (stereo not given) | inconclusive: 12.6 µM [inhibitor, partial curve] | 
12 | FC(F)(F)c1nnc2c(Sc3ccccc3)nc3ccccc3n12 | inconclusive: 2.51 µM [inhibitor, partial curve, poor fit] | 
13 | CC1CN(S(=O)(=O)c2ccccc2)CN1C(=O)N1CCOCC1 (stereo not given) |  | inactive: -6.76%
14 | O=C(NC1CCCC1)C(c1ccncc1)N(C(=O)c1ccco1)c1ccc(F)c(Cl)c1 (stereo not given) |  | inactive: -0.743%
15 | Cc1cc(O)ccc1C1(c2ccc(O)cc2C)OC(=O)c2ccccc21 | inconclusive: 35.5 µM [inhibitor, single point] | 
16 | COc1ccc2[nH]c(C(=O)N3CCNCC3)cc2c1OC |  | inactive: 0.572%
17 | Cc1ccc(C)c(Nc2nnc(-c3ccc(C)c(S(=O)(=O)N4CCCCC4)c3)c3ccccc23)c1 |  | inactive: -18.5%
18 | O=c1n2c(c(O)n1C1CCCCC1)C(c1ccccc1)=Nc1ccccc1C2 | inconclusive: 22.4 µM [inhibitor, single point] | 
19 | O=C(/C=C/c1ccccc1)Nc1cc(NC(=O)/C=C/c2ccccc2)cc(C(=O)O)c1 |  | inactive: -1.24%
20 | Cc1cc(C)n2nc(SCC(=O)NC3CCCCC3)nc2n1 |  | inactive: -3.82%
21 | Cc1cc2nc(SCCOC(=O)Nc3cccc(Cl)c3)nc(C)c2cc1C |  | inactive: -16.8%
22 | Cc1ccc(CSc2nc3c(c(=O)[nH]2)C(c2cccc(F)c2F)CC(=O)N3)cc1 (stereo not given) |  | inactive: -5.45%
23 | O=C(COCc1cc(-c2ccco2)on1)Nc1cccc(Cl)c1Cl |  | inactive: 0%

Row | Compound | Potency | activity, negative = inhibition
24 | O=C(Nc1ccc2[nH]c(=O)[nH]c2c1)c1ccc([N+](=O)[O-])o1 | active: 11.2 µM | 
25 | COc1cc(NC(=O)c2ccc(C)cc2)c(OC)cc1NC(=O)CN1CCOCC1 |  | inactive: -0.396%
26 | CCCOC1CCCN(C(=O)c2cc(COc3ccc(-n4cncn4)cc3)on2)C1 (stereo not given) | inconclusive: 35.5 µM [inhibitor, single point] | 
27 | COc1ccc(C2N3CC4(C)CN2CC(c2ccccc2)(C3)C4=O)cc1 (stereo not given) | inconclusive: 15.8 µM [inhibitor, single point] | 
28 | CCc1sc(C(=O)Nc2ccc(N3CCOCC3)cc2)cc1C |  | inactive: 16.5%
29 | O=c1c2cnn(-c3ccccc3)c2nc(-c2cccs2)n1-c1cccc(Cl)c1 | inconclusive: 7.08 µM [inhibitor, partial curve] | 
30 | O=C(c1ccccc1)N1CCN(Cc2ccc3c(c2)OCO3)CC1 |  | inactive: 12.1%
31 | CC1(C(=O)Nc2cccc(C#N)c2)CCN1C(=O)CCc1ccccc1 (stereo not given) |  | inactive: 11.6%
32 | COc1ccccc1NC(=O)c1cc(S(=O)(=O)NC2CCCC2)ccc1F |  | inactive: -0.844%
33 | Cc1ccc(CNC(=O)CN(C)S(=O)(=O)c2cnc[nH]2)cc1 | inconclusive: 35.5 µM [inhibitor, partial curve, poor fit] | 
34 | Cc1ccc(CNCc2cc3c(C(C)(C)C)nn(-c4ccccc4)c3[nH]c2=O)cc1 |  | inactive: -28.5%
35 | COc1ccc(C2=Nn3c(nnc3-c3ccc(OC)cc3)SC2)cc1 | inconclusive: 7.08 µM [inhibitor, partial curve, poor fit] | 
36 | CC(=O)c1ccc(NC(=O)CSc2nccn2Cc2ccc3c(c2)OCO3)cc1 | inconclusive: 11.2 µM [inhibitor, single point] | 
37 | COC(=O)Nc1nnc(SCc2ccc(C)cc2)s1 | inconclusive: 35.5 µM [inhibitor, single point] | 
38 | Cc1ccc(NC2=C(Cl)C(=O)OC2OC(=O)c2ccccc2C)cc1 (stereo not given) | inconclusive: 22.4 µM [inhibitor, partial curve, poor fit] | 
39 | Cn1c(N)c(C(=O)COC(=O)c2cccc(S(=O)(=O)N3CCCCC3)c2)c(=O)n(C)c1=O | inconclusive: 25.1 µM [inhibitor, partial curve, poor fit] | 
40 | O=C(O)c1ccc(N=Nc2c(O)ccc3ncccc23)cc1 |  | inactive: -1.39%
41 | FC(F)(F)c1cc(CCN2CCNC[C@H]2Cc2cccc3ccccc23)cc(C(F)(F)F)c1 | inconclusive: 35.5 µM [inhibitor, single point] | 
42 | O=C(COc1ccc(Cl)cc1)NCCc1csc(-c2cccc(F)c2)n1 | inconclusive: 25.1 µM [inhibitor, single point] | 
43 | COc1cccc(C(=O)N(Cc2nc(-c3ccc(C)cc3)no2)C(C)C)c1 |  | inactive: -1.9%
44 | COc1cnc(SCc2ccc(Cl)cc2Cl)nc1Cl | inconclusive: 35.5 µM [inhibitor, single point] | 
45 | CCC1=C(OC(=O)N(CC)CC)N2C(=O)OC(=NCCc3c[nH]c4ccccc34)[C@]2(Cc2ccccc2)[C@H]2C1=CC[C@H]1C(=O)N(C)C(=O)[C@H]12 | inconclusive: 10 µM [inhibitor, partial curve, poor fit] | 
